Reference: PubChem BioAssay AID1645882 (National Center for Advancing Translational Sciences (NCATS), 2021)
The whole screen tested about 16,000 compounds, of which about 120 (0.75%) were called active. Inconclusive results (about 4%) are left out. Calls come from the whole dose curve; as a rule, active = well fitted inhibition curve with a large enough effect; inconclusive = small, poorly fitted or top-dose-only effect; inactive = no such curve, though single readings can be large or run the other way. The list shows a part of the results.

What follows are compounds tested against Rap guanine nucleotide exchange factor 3 (Homo sapiens) (UniProt O95398) (assay: Validation qHTS for antagonist of cAMP-regulated guanine nucleotide exchange factor 3 (EPAC1)). Settings: EPAC1 Rap1B-BODIPY-GDP exchange, fluorescence; series mostly up to 150 µM; activity change, negative = inhibition: at the top concentration.
UniProt O95398, sequence (O95398 whole entry, looked up): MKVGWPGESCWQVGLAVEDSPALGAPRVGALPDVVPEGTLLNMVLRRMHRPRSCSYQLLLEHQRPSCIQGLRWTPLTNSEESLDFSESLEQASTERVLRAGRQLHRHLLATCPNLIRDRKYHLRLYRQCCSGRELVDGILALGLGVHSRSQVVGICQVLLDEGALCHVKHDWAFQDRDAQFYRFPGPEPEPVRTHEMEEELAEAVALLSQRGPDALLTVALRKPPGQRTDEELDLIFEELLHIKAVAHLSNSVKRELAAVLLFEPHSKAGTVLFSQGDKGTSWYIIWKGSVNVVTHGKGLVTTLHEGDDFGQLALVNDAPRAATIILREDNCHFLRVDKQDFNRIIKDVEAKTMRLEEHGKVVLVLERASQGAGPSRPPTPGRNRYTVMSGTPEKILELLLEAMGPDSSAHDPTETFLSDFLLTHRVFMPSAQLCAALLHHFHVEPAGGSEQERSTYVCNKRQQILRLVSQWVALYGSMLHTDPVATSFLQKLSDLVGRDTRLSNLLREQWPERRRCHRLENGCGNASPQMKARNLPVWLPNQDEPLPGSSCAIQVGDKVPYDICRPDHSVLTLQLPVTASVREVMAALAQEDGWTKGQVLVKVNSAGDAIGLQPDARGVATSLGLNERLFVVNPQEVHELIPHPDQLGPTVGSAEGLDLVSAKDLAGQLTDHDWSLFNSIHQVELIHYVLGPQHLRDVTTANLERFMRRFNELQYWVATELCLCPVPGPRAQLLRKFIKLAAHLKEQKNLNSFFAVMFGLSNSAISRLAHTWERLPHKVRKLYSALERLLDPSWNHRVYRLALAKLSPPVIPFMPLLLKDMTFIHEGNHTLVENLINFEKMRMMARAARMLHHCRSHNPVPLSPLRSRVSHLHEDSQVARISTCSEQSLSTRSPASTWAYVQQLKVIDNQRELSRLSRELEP
Method in brief: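 Nucleotide exchange followed as fluorescence loss when BODIPY-GDP leaves Rap1B (480 nm excitation, 540 nm emission), read at 5 min intervals over 30 min. Reaction: 100 nM EPAC1, 250 nM RAP1B-BODIPY-GDP, 50 uM GDP; ATA and DMSO define normalization.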
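Note: plate controls were DMSO for no effect and ATA control for full effect; nearly all actives have a fitted effect of over 75% in size.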

Activity change, negative = inhibition, inactive:
C=C1C(=CC=C2CCC[C@]3(C)[C@@H]([C@H](C)C=C[C@H](C)C(C)C)CC[C@@H]23)C[C@@H](O)C[C@@H]1O -26.5%
Cc1ccccc1C(=O)N1CC/C(=N\OS(=O)(=O)O)c2ccc(Cl)cc21 37.7%
CCOc1cccc(C(=O)c2ccc(O)c(O)c2O)c1 -26%
O=C(C[n+]1ccc(/C=C/c2c[nH]c3ccccc23)c2ccccc21)c1ccccc1 6.98%
COc1cc2c(cc1OC)C1CCC3=C([C@H](C)OC3=O)N1CC2 (stereo not given in full) 28%
CC(=O)OCC1=C(C(=O)O)N2C(=O)C(NC(=O)Cc3cccs3)C2SC1 (stereo not given) 17.2%
c1ccc(CNc2cc(-c3cccnc3)ncn2)cc1 17.2%
CN(C)c1ccc(/C=C/c2sc3ccccc3[n+]2CCCCBr)cc1 12%
COC(=O)N1CCC2(CC1)CCN(c1cccc(-c3ccccc3)c1)CC2 -19.1%
O=c1cc(-c2ccc(O)cc2)oc2cc(O)cc(O)c12
COc1ccccc1-c1nc(NCCc2cnc[nH]2)c2ccccc2n1 -13.3%
COc1cccc(Cn2c(=O)c(CCc3ccccc3)nc3cnc(N(C)C)nc32)c1 26.9%
O=C1CC[C@@H]2C[C@@]3(C[C@@H]4CCN1[C@H]24)Nc1cc([N+](=O)[O-])ccc1NC3=NCc1ccccc1 7.89%
Cc1cccc(CNc2ncncc2-c2cccc(C#N)c2)c1 18.4%
O=C(NCCc1ccccc1)[C@@H]1CC=C[C@@H]2CCN(C3CCCCC3)C(=O)[C@@H]21 -26.3%
C[C@H](CCC(=O)NCC(=O)O)C1CC[C@H]2C3CC[C@@H]4C[C@H](O)CC[C@]4(C)C3C[C@H](O)[C@]12C (stereo not given in full) 42.4%
COCc1ccc(CN2Cc3ccccc3OC(c3ccccc3F)C2)o1 (stereo not given) 2.35%
CC(C)NC[C@@H](O)COc1ccc(CCOCC2CC2)cc1 11.9%
COc1ccc(CN2CCC3(CCC(CNC(=O)c4ccco4)O3)CC2)cc1OC (stereo not given) 9.2%
CC(C)NCC(O)COc1ccc(COCCOC(C)C)cc1 (stereo not given)
COc1ccccc1C(=O)N[C@@H]1c2ccccc2C2(CCN(C(=O)c3ccnn3C)CC2)[C@H]1OC 22.6%
Nc1nc(=S)c2ncn([C@@H]3O[C@H](CO)[C@@H](O)[C@H]3O)c2[nH]1 24.9%
c1csc(CNc2cc(-c3ccoc3)ncn2)c1 7.38%
CC1OC(OCC2OC(Oc3c(-c4ccc(O)c(O)c4)oc4cc(O)cc(O)c4c3=O)C(O)C(O)C2O)C(O)C(O)C1O (stereo not given) -18.2%
C#CCCCCCCCCCCCC(O)CC(O)CO (stereo not given) -2.07%
CC[C@H]1OC(=O)[C@H](C)[C@@H](O[C@H]2C[C@@](C)(OC)[C@@H](O)[C@H](C)O2)[C@H](C)[C@@H](O[C@@H]2O[C@H](C)C[C@H](N(C)C)[C@H]2O)[C@](C)(O)C[C@@H](C)[C@@H]2N[C@@H](COCCOC)O[C@@H]([C@H]2C)[C@]1(C)O 30%
COc1ccccc1-c1ccnc(-n2ncc(C(=O)NCCc3ccncc3)c2C)n1 9.11%
COc1ccccc1-n1cc(C(=O)NCCN2Cc3ccccc3OC(c3ccsc3)C2)cn1 (stereo not given) 0.854%
COC(C)C(C(=O)OCC1=CCN2CC[C@H](O)[C@@H]12)C(C)C (stereo not given in full) 25.2%
CN(C)c1ccc(-c2cc(NCc3cccnc3)ncn2)cc1 4.33%
Cc1sc2ccccc2[n+]1CC(=O)c1ccc(F)cc1 11%
COc1ccc2[nH]cc(CCNc3ncncc3-c3ccccc3C(F)(F)F)c2c1 -17.2%
NC(N)=Nc1nc(CSCC/C(N)=N\S(N)(=O)=O)cs1 17.2%
CC(C)=CCCC(C)CCO (stereo not given) -4.05%
CN(C)c1cc(-c2cccc(NS(C)(=O)=O)c2)ncn1 12.6%
CCCCC[C@H](O)/C=C/[C@@H]1[C@@H](C/C=C\CCCC(=O)O)[C@@H](O)C[C@@H]1O 8.34% [at 15.3 µM]
COc1ccc2[nH]cc(CCNc3ncncc3-c3ccccc3Cl)c2c1 -17%
Nc1nc(Cl)nc2c1ncn2[C@@H]1O[C@H](CO)[C@@H](O)[C@@H]1F 17.6%
CCCCCCCCCCCCCCCCOCC(CO)OC(C)=O (stereo not given) 7.67% [at 15.3 µM]
Cc1oc(-c2ccccc2NC(=O)c2ccccc2)nc1CNC(=O)C1CC(=O)OC12CCCCC2 (stereo not given) -11.7%
COc1cc2ccc(=O)oc2c(OC)c1OC 3.39%
CC(C)C(=O)OCC(=O)[C@@]12O[C@H](C3CCCCC3)O[C@@H]1C[C@H]1[C@@H]3CCC4=CC(=O)C=C[C@]4(C)[C@H]3[C@@H](O)C[C@@]12C 9.32%
N#CCCn1c(=O)c(-c2ccc(F)cc2)nc2cnc(OCc3ccccc3)nc21 12.4%
O=C(NCc1cccnc1)c1cnn(-c2nccc(-c3cccs3)n2)c1C1CC1 5.69%
CN(C)C(=O)c1ccc(-c2ccc3ncnc(N4CCOCC4)c3c2)cc1 1.04%
Cc1ccc(C(=O)Nc2cccc(-c3nc(CNC(=O)C4(C)CC4)c(C)o3)c2)s1 18.6%
Cc1cc(-c2ccnc(-n3ncc(C(=O)N(C)CC(O)c4ccccc4)c3C)n2)c(C)s1 (stereo not given) 14%
CC(N)=O 7.69% [at 75.8 µM]
CN1CC[C@H](c2c(O)cc(O)c3c(=O)cc(-c4ccccc4Cl)oc23)[C@H](O)C1 29.5%
CCCCCCCCCCCCCCCCCCOC[C@H](COP(=O)([O-])OCC[N+](C)(C)C)OC(C)=O -3.64% [at 15.3 µM]
O=C(C[N+]12CCCc3cccc(c31)CCC2)c1ccccc1 25.4%
O=C([C@@H]1C[C@@H](Sc2nc3ccccc3[nH]2)CN1Cc1ccc(C(F)(F)F)cc1)N1CCN(c2ccccc2F)CC1 7.98%
CCCCCCCCCC[n+]1ccc(/C=C/c2c(C)[nH]c3ccccc23)cc1 -27.1%
O=C(NCN1CCOCC1)c1cnccn1 6.11%
COc1ncc2nc(-c3cc(F)cc(F)c3)c(=O)n(CCC#N)c2n1 -1.83%
COc1cc(-c2cc(=O)c3c(O)c(OC)c(OC)c(OC)c3o2)cc(OC)c1OC 1.5%
Cc1noc(C)c1C(=O)N1CCC2(CCN(Cc3ccccc3)CC2)CC1 15.4%
Cc1cc([C@](C)(N)C(=O)O)ccc1P(=O)(O)O 7.42%
Cc1cnc(-n2ncc(C(=O)NCc3cccnc3)c2C)nc1-c1ccc(F)cc1 12.1%
CN1CCN(c2ncc3nc(-c4ccccc4)c(=O)n(C)c3n2)CC1 3.65%
